Among all 230,000 compounds or so, about 3,600 (1.6%) were called active. The call rests on the fitted dose curve; in most records, active means well fitted inhibition curve with a large enough effect (not every such curve was filed as active); inconclusive means small, poorly fitted or top-dose-only effect, or another doubt; inactive means no such curve, though single readings can be large or run the other way. Inconclusive results, whose numbers are uncertain, are shown. A potency beside an inconclusive call is a rough fit, not a confirmed value.
molecular target: Lysine-specific demethylase 4E (Homo sapiens) (UniProt B2RXH2); test: qHTS Assay for Inhibitors of Human Jumonji Domain Containing 2E (JMJD2E); conditions: JMJD2E catalytic domain, FDH-coupled NADH fluorescence (FDH is formaldehyde dehydrogenase); series mostly up to 57.1 µM
UniProt B2RXH2, sequence (B2RXH2 whole entry, looked up, the tested form may be a part): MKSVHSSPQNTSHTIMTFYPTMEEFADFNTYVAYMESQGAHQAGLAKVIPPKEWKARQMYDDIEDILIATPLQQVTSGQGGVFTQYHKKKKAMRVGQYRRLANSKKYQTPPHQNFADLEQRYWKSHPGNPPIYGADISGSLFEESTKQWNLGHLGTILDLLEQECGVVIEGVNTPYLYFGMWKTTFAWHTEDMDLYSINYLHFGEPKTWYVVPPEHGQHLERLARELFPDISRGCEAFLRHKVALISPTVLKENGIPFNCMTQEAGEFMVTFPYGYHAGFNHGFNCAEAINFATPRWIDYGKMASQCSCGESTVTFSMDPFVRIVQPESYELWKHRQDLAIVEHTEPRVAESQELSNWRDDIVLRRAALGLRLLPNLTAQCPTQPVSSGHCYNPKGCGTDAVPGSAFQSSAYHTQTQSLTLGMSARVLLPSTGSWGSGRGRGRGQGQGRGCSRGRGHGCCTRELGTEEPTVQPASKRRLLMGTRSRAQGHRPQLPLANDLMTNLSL
From the text: Assay Provider: Structural Genomics Consortium [SGC] Screening Center PI: Austin, C.P. Screening Center: NIH Chemical Genomics Center [NCGC] The fine interplay among methylation states of several lysine residues on the tails of histone proteins is a major determinant of the transcriptional state of the associated DNA coding regions and is commonly referred to as the histone code. Histone lysine demethylases catalyze the removal of methyl groups from methylated lysine sidechains on histones H3 and H4, thus antagonizing the reactions catalyzed by histone lysine methyltransferases. […] In search for novel inhibitors of JMJD2E demethylase, a member of the largest set of histone demethylases belonging to the Fe(II) and 2-oxoglutarate oxygenase (2OG) superfamily, we performed a quantitative high-throughput screen (Inglese 2006) by using an assay which utilizes a trimethylated peptide substrate corresponding to a fragment of histone H3 (sequence ARKme3STGGK) with detection of the formaldehyde co-product in real time by a formaldehyde dehydrogenase (FDH) coupled reaction. FDH catalyzes oxidation of formaldehyde to formic acid with the concomitant reduction of the non-fluorescent beta-nicotinamide adenine dinucleotide hydrate (NAD+) cofactor to the fluorescent NADH co-product. References: Inglese, J., Auld, D., Jadhav, A., Johnson, R., Simeonov, A., Yasgar, A., Zheng, W. and Austin, C. Proc Natl Acad Sci USA 2006, 103, 11473-11478. N. R. Rose, S. S. Ng, J. Mecinovic, B. M. Lienard, S. H. Bello, Z. Sun, M. A. McDonough, U. Oppermann and C. […]
Reagents and Controls: Ferrous ammonium sulfate, (+)-sodium L-ascorbate, beta-nicotinamide adenine dinucleotide hydrate (NAD+), Tween-20, formaldehyde dehydrogenase from P. putida (FDH), and disodium 2-oxoglutarate were from Sigma (St. Louis, MO). […] The plate was transferred to ViewLux imager where an initial reading using standard UV optics (Ex 340 nm, Em 450 nm) was obtained. The plate was then removed from the reader, incubated for 30 minutes at room temperature, and returned to the reader for a second fluorescence reading. […]
Further: nearly all actives have a fitted effect of over 50% in size.
Potency means the concentration at half of the fitted maximal effect; tags describe the fitted curve by direction and shape.

SMILES | Potency
COC(=O)c1sc(-c2ccc(C(C)(C)C)cc2)cc1NC(=O)COCC(=O)O | inconclusive: 31.6 µM [inhibitor, partial curve]
Cc1ccccc1N/N=C/c1sc(=O)n(Cc2cccc(C(=O)O)c2)c1Cl | inconclusive: 25.1 µM [inhibitor, single point]
O=C(Nc1ccc(-c2nc3ccccc3[nH]2)cc1)c1ccccc1NS(=O)(=O)c1ccc(F)cc1 | inconclusive: 25.1 µM [inhibitor, partial curve]

From PubChem BioAssay AID2147 (National Center for Advancing Translational Sciences (NCATS), 2009)
